T1: UNK ZnF1-3 (human, UniProt Q9C0B0 31-174)
T1 sequence: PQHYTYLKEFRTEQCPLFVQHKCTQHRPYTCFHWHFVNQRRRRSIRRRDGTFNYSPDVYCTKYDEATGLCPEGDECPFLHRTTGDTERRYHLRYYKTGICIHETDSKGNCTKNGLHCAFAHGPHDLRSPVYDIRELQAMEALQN

B1: chr3:8560387:8560388:+_ENSMUSG00000027500_ENSMUST00000029002|perfect_dup|FALSE|FALSE (ssRNA)
RNA: GGGAGUUCUACAGUCCGACGAUCCAUACAUUCCCCAUCCUGAUAUCGCAUGAUCCAUUAUAAUAUAGGCAGGGGGAUUUACUAUUGGUGGGGCGUGCCAGACCCUCCCUUGCUUCAGCCAGACAGUUCAACCUGGAGUUCCUUCAACAGAGGAUUGAGCAUCA
B2: 151885107_151885811_1423_3pUTR_ENSMUSG00000028034_ENSMUST00000166984|mouse|control|control (ssRNA)
RNA: GGGAGUUCUACAGUCCGACGAUCCUAAAGGAUUUACUGGGCCCCCAAUCUUCUCUUCUAUGAGUUGUCGAGCAUAGUCUAUUUGCUGUGGAGUGCCCCGAAUUGUAAAUAACUUCAUAUUGGGAUCUGCAUUAGGUGGAGGGCCAACAGAGGAUUGAGCAUCA
B3: chr6:112015657:112015658:-_ENSG00000010810_ENST00000368667|hu_hu|FALSE|FALSE (ssRNA)
RNA: GGGAGUUCUACAGUCCGACGAUCAGCAAUCUUGCAUAUGAGUCCAUUCCCCACUAGAAUGUUUGCUGAUCGCAGAUCUCUAUGGAUAUAAUUCAUGCGCUCGAUGUAAGCCAUUCCUGCAGCCACCUGUGCUGCCAUGUCCACCAACAGAGGAUUGAGCAUCA
B4: 49545228_49545348_462_3pUTR_ENSG00000101126_ENST00000396029|human|control|control (ssRNA)
RNA: GGGAGUUCUACAGUCCGACGAUCACGGAGUCCAGAUCCUCAAAAUGGUAGUACAGGGCAUAACCACUAGGCCACCUAUCAGUUCAGUACAAAAAGUACAACCCUGCGCAUCAUGGUGUAAAAGCUGGGGCCUAGGUUUCGCAUCAACAGAGGAUUGAGCAUCA
B5: chr7:106494041:106494042:-_ENSMUSG00000070436_ENSMUST00000094154|mus_hu|FALSE|FALSE (ssRNA)
RNA: GGGAGUUCUACAGUCCGACGAUCCUUGGAUUGAUAGCAACAAAGGCUCAUGUUCCCCCUUCCCUCCCUAUCUUUGAAGAACUAAAAAAGGAAGAAACAAAACAAAAAGUUCAUCCCCACAACGCCAGACACGAUGCUUCUUGACAACAGAGGAUUGAGCAUCA
B6: 120360295_120360415_1526_CDS_ENSMUSG00000027288_ENSMUST00000055241|mouse|control|control (ssRNA)
RNA: GGGAGUUCUACAGUCCGACGAUCAGGGGUUGGAAGUGGAAGGAGUGGGGAUUUCAGUAAUGGAAUCUUAUUUGACUUCUGAUGUGGCUCAGAUUGCUCGGUAAUGGGGCAAGCUCUUGGCACCUCACAGAAAGCAGUGCCAUCCAACAGAGGAUUGAGCAUCA
B7: chr2:37458628:37458629:-_ENSMUSG00000026915_ENSMUST00000072186|mus_mus|motif|central (ssRNA)
RNA: GGGAGUUCUACAGUCCGACGAUCCUUAUACUGAAGCCCGGGCCUGAUCUGAUUUAAUCUCAUUAGUGCAUUCAUAAGGUCGGUUGCUUUACUAUCUAGAAUUUUCCUUAAGUUUCGUUUCAUCUUCUUGUUGGGAUCUUUAUCCAACAGAGGAUUGAGCAUCA
B8: chr5:38546887:38546888:-_ENSMUSG00000029126_ENSMUST00000031009|mus_hu|FALSE|FALSE (ssRNA)
RNA: GGGAGUUCUACAGUCCGACGAUCGACCAACACGGAGACCUUAAACCUCUCGGUGACACCCUCCGUGAUGCUGACGGUGAACUCAGCAAUUUGGGGAGGACGUGCUUUCCCUUUCUUGCGGUCAGGUUCAUACUCGGUCUUAGUCAACAGAGGAUUGAGCAUCA
B9: chr5:135103553:135103554:-_ENSMUSG00000040731_ENSMUST00000036125|perfect_dup|motif|central (ssRNA)
RNA: GGGAGUUCUACAGUCCGACGAUCGUCUUUGUCUCUGACUAGCCGUACACUCCUUAUGCUGAGAUCCUUAAAGAUAGCAUCGGUGUCGCCCUGAACCGUAUUGAAAGGUAGAUUUCCUACGUAUGCUGUGUAGGGGGGCUCUGUCAACAGAGGAUUGAGCAUCA
B10: chr14:89338683:89338684:+_ENSG00000165533_ENST00000346301|hu_hu|hu_hu_hu_mus_False|58_108 (ssRNA)
RNA: GGGAGUUCUACAGUCCGACGAUCGUGGUUGUUGUUGACCAGGGCCAGCCUGAAGCAUUGGUGGGCCAAGUUUGUAUCUCCUAUUCCCACAGCUAUGUGCCCCAGGUUGUACCAGACAUCAGCUGCCUCUUCUUCAUUUUCAGCCAACAGAGGAUUGAGCAUCA
B11: 6249361_6249481_2370_CDS_ENSMUSG00000020456_ENSMUST00000003461|mouse|control|control (ssRNA)
RNA: GGGAGUUCUACAGUCCGACGAUCAUGAGGCAGCAGGAGCACAAUGCCAUUCUGCCGCACCCACUUUGCCUGUCCUGGGCAGAUGAACUGGUCAAUGAUGCACUGUGCCAUGUUGUUGAAGUCACCAAACUGGGCCUCCCAGAGCAACAGAGGAUUGAGCAUCA
B12: chr1:235505951:235505952:+_ENSG00000152904_ENST00000391855|hu_mus|FALSE|FALSE (ssRNA)
RNA: GGGAGUUCUACAGUCCGACGAUCUUUGUAGGCUUUAGCUUCAAGCUCUCUAAGAGUGUGUCGAGUGUAUGCAAAAGAACCUACAUCCUCCAGGUACUGCACACAAUACUUUUUAAUAUCUAUAUUCUCUGUUCUCUGGCGCAGCAACAGAGGAUUGAGCAUCA
B13: chr14:66974463:66974464:+_ENSMUSG00000022044_ENSMUST00000074523|mus_hu|mus_mus_mus_hu_False|78_78 (ssRNA)
RNA: GGGAGUUCUACAGUCCGACGAUCUUGUAGGACGACUUAUUCAGGGGAUCGGCCAGGAAGCAAGAGCAGAACAAGGACACCAGCGGGAGCUCCUUCAUCUUCUCUUUGUAGGCAGCAAGGGUCAUGUUUCUGGGAUCUGGUGGCCAACAGAGGAUUGAGCAUCA
B14: chr7:5336782:5336783:+_ENSG00000164638_ENST00000297195|hu_hu|FALSE|FALSE (ssRNA)
RNA: GGGAGUUCUACAGUCCGACGAUCUGGGUGCUCGAAGUGGACGUCCCCGGCGACAACGUCGUGGUGCACGCGGUAGCCAUAGCCCCUGCCCAGGCCUGGCCUGCCCCGGUGGCUGUCACGCGGCCGUGUGGUAUAGAAGAGCACCAACAGAGGAUUGAGCAUCA

The other results are listed elsewhere or left out.

The test addresses T1, UNK ZnF1-3. The experiment in a line: nsRBNS (natural sequence RNA bind-n-seq); RBNS binding buffer (assumed for nsRBNS): 25 mM Tris pH 7.5, 150 mM KCl, 3 mM MgCl2, 0.01% Triton X-100, 500 ug/ml BSA, 20 U/ml SUPERase-In, 4 C; UNK is unkempt and MSI1 is Musashi-1; names of the RNAs are library labels; protein concentration not given here; high values mean tight binding.
On to B1, for which the binding signal worked out at 1.63 enrichment R.
As for B2, the figure is 1.34 enrichment R; as for B3, 1.12 enrichment R; as for B4, 1.08 enrichment R.
Then B5, with 1.36 enrichment R.
B6 returned a binding signal of 1.07 enrichment R.
As for B7, the figure is 0.485 enrichment R; as for B8, 0.499 enrichment R.
In turn, B9 registered a binding signal of 0.834 enrichment R.
As for B10, the figure is 0.492 enrichment R; as for B11, 1.08 enrichment R; as for B12, 0.78 enrichment R.
B13 had a binding signal of 1.99 enrichment R.
In the case of B14, the binding signal was determined as 0.724 enrichment R.
